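1) Cells in 96-well plates. 2) Compound, 48 h, 5 concentrations. 3) Linear interpolation between surrounding doses. 4) Unreached endpoint = highest concentration. GI50 is the concentration that inhibits growth by half. Definition used: TGI = concentration required for complete inhibition of growth.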 Some results are limits rather than exact numbers.

This test relates to NCI-H322M lung. Briefly: inhibition of tumour cell growth, NCI panel, 48 h.
Turning to `C[C@H]1[C@@H](CC(=O)N[C@@H](Cc2coc3ccccc23)B(O)O)O[C@@H]2OC3(C)CC[C@H]4[C@H](C)CC[C@@H]1[C@@]24OO3`, the GI50 is 10.3 µM and the TGI came to 34.3 µM.

On to `O=C(/C=C/c1cccc(Br)c1)c1nc2ccccc2n1Cc1ccc(Br)cc1`, for which the GI50 is 4.1 µM and the TGI worked out at 17.4 µM.

With `CC(=O)Nc1cccc(-c2nc3cc(-c4ccc(O)cc4)ccc3n2C)c1`, the GI50 is 19 µM and the TGI is 61.9 µM.

With `Cc1ccc(-c2ccc(SCC(=O)Nc3ccc(Cl)c(C(F)(F)F)c3)nn2)cc1`, the GI50 is 30.4 µM and the TGI was above 100 µM.

(Values after PubChem BioAssay (NCI).)
